The other results are listed elsewhere or left out. Single values are uncertain, as repeats are few or missing.
Assays:
Test in all cases: cell count relative to DMSO control; melanoma cells; higher = more viable cells
Conditions in all cases: library dose: low library concentration; 72 h
MZ2-MEL = test system: MZ2-MEL
MeWo = test system: MeWo
RPMI7951 = test system: RPMI7951
RVH-421 = test system: RVH-421
SkMel28 = test system: SkMel28
SkMel2 = test system: SkMel2
SkMel30 = test system: SkMel30
UACC62 = test system: UACC62
SkMel5 = test system: SkMel5
UACC257 = test system: UACC257
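Also: cell number obtained by counting DAPI-stained nuclei in high-throughput microscope images with image analysis software, screen run in 1,536-well plates.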

| SMILES | cell count (MZ2-MEL) | cell count (MeWo) | cell count (RPMI7951) | cell count (RVH-421) | cell count (SkMel28) | cell count (SkMel2) | cell count (SkMel30) | cell count (UACC62) | cell count (SkMel5) | cell count (UACC257) |
| --- | --- | --- | --- | --- | --- | --- | --- | --- | --- | --- |
| CS(=O)(=O)CCNCc1ccc(-c2ccc3ncnc(Nc4ccc(OCc5cccc(F)c5)c(Cl)c4)c3c2)o1 [lapatinib] + CC(=O)c1c(C)c2cnc(Nc3ccc(N4CCNCC4)cn3)nc2n(C2CCCC2)c1=O [palbociclib] (first compound 0.8 µM, partner dose 0.04 µM) | 85.9% | 78.7% | 76.3% | 111% | 71.8% | 91.9% | 82.6% | 87.8% |  |  |
| C[C@@H](Oc1cc(-c2cnn(C3CCNCC3)c2)cnc1N)c1c(Cl)ccc(F)c1Cl [Crizotinib] + C#Cc1cccc(Nc2ncnc3cc(OCCOC)c(OCCOC)cc23)c1 [erlotinib] (first compound 0.2 µM, partner dose 0.8 µM) | 96.4% | 92.6% | 114% | 81.2% | 72.1% | 95.2% | 93.7% | 85.7% |  |  |
| C[C@@H](Oc1cc(-c2cnn(C3CCNCC3)c2)cnc1N)c1c(Cl)ccc(F)c1Cl [Crizotinib] + OCc1c[nH]c2ccccc12 [Indole-3-carbinol] (first compound 0.2 µM, partner dose 0.8 µM) | 92.6% | 89.9% | 100% | 82.7% | 99.5% | 87.1% | 88.7% | 106% |  |  |
| C=CCNC1=C2C[C@@H](C)C[C@H](OC)[C@H](O)[C@@H](C)/C=C(\C)[C@H](OC(N)=O)[C@@H](OC)/C=C\C=C(/C)C(=O)NC(=CC1=O)C2=O [Tanespimycin] + C#Cc1cccc(Nc2ncnc3cc(OCCOC)c(OCCOC)cc23)c1 [erlotinib] (first compound 0.002 µM, partner dose 0.8 µM) | 93.8% | 84.2% | 66.8% | 102% | 75.4% | 97.8% | 98.3% | 86.7% |  |  |
| C[C@@H](Oc1cc(-c2cnn(C3CCNCC3)c2)cnc1N)c1c(Cl)ccc(F)c1Cl [Crizotinib] + Nc1ccn([C@@H]2O[C@H](CO)[C@@H](O)C2(F)F)c(=O)n1 [gemcitabine] (first compound 0.2 µM, partner dose 0.0004 µM) | 100% | 102% | 106% | 99.1% | 111% | 98.2% | 100% | 95.7% |  |  |
| CNC(=O)c1cc(Oc2ccc(NC(=O)Nc3ccc(Cl)c(C(F)(F)F)c3)cc2)ccn1 [sorafenib] + COc1ccc(Cl)c(Nc2nc3ccccc3nc2NS(=O)(=O)c2cccc(NC(=O)C(C)(C)N)c2)c1 [XL147] (first compound 0.4 µM, partner dose 0.8 µM) | 87.3% | 83% | 74% | 86.8% | 105% | 92% | 85.4% | 111% |  |  |
| CS(=O)(=O)CCNCc1ccc(-c2ccc3ncnc(Nc4ccc(OCc5cccc(F)c5)c(Cl)c4)c3c2)o1 [lapatinib] + C=C(c1ccc(C(=O)O)cc1)c1cc2c(cc1C)C(C)(C)CCC2(C)C [Bexarotene] (first compound 0.8 µM, partner dose 2 µM) | 110% | 86.5% | 86.5% | 98.4% | 76.7% | 93.9% | 103% | 95.2% |  |  |
| CS(=O)(=O)CCNCc1ccc(-c2ccc3ncnc(Nc4ccc(OCc5cccc(F)c5)c(Cl)c4)c3c2)o1 [lapatinib] + Cn1c(Nc2ccc(C(F)(F)F)cc2)nc2cc(Oc3ccnc(-c4ncc(C(F)(F)F)[nH]4)c3)ccc21 [CHIR265] (first compound 0.8 µM, partner dose 0.08 µM) | 81.7% | 72% | 48.3% | 58.3% | 62.7% | 78.2% | 58.5% | 49.5% |  |  |
| CNC(=O)c1cc(Oc2ccc(NC(=O)Nc3ccc(Cl)c(C(F)(F)F)c3)cc2)ccn1 [sorafenib] + Cn1c(Nc2ccc(C(F)(F)F)cc2)nc2cc(Oc3ccnc(-c4ncc(C(F)(F)F)[nH]4)c3)ccc21 [CHIR265] (first compound 0.4 µM, partner dose 0.08 µM) | 97.8% | 70.8% | 63% | 75.9% | 81.6% | 78.5% | 79% | 63.5% |  |  |
| CN1CCN(c2ccc3nc(-c4c(N)c5c(F)cccc5[nH]c4=O)[nH]c3c2)CC1 [Dovitinib] + CNC(=O)c1cc(Oc2ccc(NC(=O)Nc3ccc(Cl)c(C(F)(F)F)c3)cc2)ccn1 [sorafenib] (first compound 0.1 µM, partner dose 0.4 µM) | 75.8% | 82% | 95.8% | 116% | 82.6% | 97% | 41.4% | 74.8% |  |  |
| CNC(=O)c1cc(Oc2ccc(NC(=O)Nc3ccc(Cl)c(C(F)(F)F)c3)cc2)ccn1 [sorafenib] + O=C(O)c1ccc2c(c1)nc(Nc1cccc(Cl)c1)c1ccncc12 [CX4945] (first compound 0.4 µM, partner dose 0.4 µM) | 88.2% | 98.1% | 103% | 91.2% | 99.4% | 89.2% | 103% | 103% |  |  |
| C=CCNC1=C2C[C@@H](C)C[C@H](OC)[C@H](O)[C@@H](C)/C=C(\C)[C@H](OC(N)=O)[C@@H](OC)/C=C\C=C(/C)C(=O)NC(=CC1=O)C2=O [Tanespimycin] + CCCCCCCCCCCC1=C(O)C(=O)C=C(O)C1=O [Embelin] (first compound 0.002 µM, partner dose 1.2 µM) | 104% | 99.5% | 110% | 101% | 91.1% | 102% | 95.1% | 95.2% | 96.3% | 101% |
| C[C@@H](Oc1cc(-c2cnn(C3CCNCC3)c2)cnc1N)c1c(Cl)ccc(F)c1Cl [Crizotinib] + Clc1ccc(Nc2nnc(Cc3ccncc3)c3ccccc23)cc1 [vatalanib] (first compound 0.2 µM, partner dose 2 µM) | 102% | 92.2% | 102% | 116% | 91.5% | 101% | 101% | 116% |  |  |
| C[C@@H](Oc1cc(-c2cnn(C3CCNCC3)c2)cnc1N)c1c(Cl)ccc(F)c1Cl [Crizotinib] + Nc1cccc2c1CN(C1CCC(=O)NC1=O)C2=O [lenalidomide] (first compound 0.2 µM, partner dose 1 µM) | 102% | 93.7% | 103% | 97.5% | 88.6% | 97.8% | 104% | 103% |  |  |
| CNC(=O)c1cc(Oc2ccc(NC(=O)Nc3ccc(Cl)c(C(F)(F)F)c3)cc2)ccn1 [sorafenib] + C=CCn1c(=O)c2cnc(Nc3ccc(N4CCN(C)CC4)cc3)nc2n1-c1cccc(C(C)(C)O)n1 [MK1775] (first compound 0.4 µM, partner dose 0.02 µM) | 107% | 104% | 90.4% | 79% | 82.4% | 92.3% | 105% | 89% | 85.6% | 110% |
| CS(=O)(=O)CCNCc1ccc(-c2ccc3ncnc(Nc4ccc(OCc5cccc(F)c5)c(Cl)c4)c3c2)o1 [lapatinib] + O=S(=O)(c1ccccc1)N(CC(F)(F)F)c1ccc(C(O)(C(F)(F)F)C(F)(F)F)cc1 [T0901317] (first compound 0.8 µM, partner dose 1.4 µM) | 99.6% | 90.2% | 98.7% | 127% | 84.6% | 101% | 95.3% | 90.2% | 65.9% | 92.2% |
| CNC(=O)c1cc(Oc2ccc(NC(=O)Nc3ccc(Cl)c(C(F)(F)F)c3)cc2)ccn1 [sorafenib] + CS(=O)(=O)CCNCc1ccc(-c2ccc3ncnc(Nc4ccc(OCc5cccc(F)c5)c(Cl)c4)c3c2)o1 [lapatinib] (first compound 0.4 µM, partner dose 0.8 µM) | 96.5% | 86.8% | 73.2% | 89.8% | 97.4% | 87.4% | 106% | 96.8% |  |  |
| C=CCNC1=C2C[C@@H](C)C[C@H](OC)[C@H](O)[C@@H](C)/C=C(\C)[C@H](OC(N)=O)[C@@H](OC)/C=C\C=C(/C)C(=O)NC(=CC1=O)C2=O [Tanespimycin] + Nc1cccc2c1CN(C1CCC(=O)NC1=O)C2=O [lenalidomide] (first compound 0.002 µM, partner dose 1 µM) | 101% | 105% | 82.2% | 89.3% | 84.7% | 100% | 97% | 96.1% |  |  |
| CNC(=O)c1cc(Oc2ccc(NC(=O)Nc3ccc(Cl)c(C(F)(F)F)c3)cc2)ccn1 [sorafenib] + C=C(c1ccc(C(=O)O)cc1)c1cc2c(cc1C)C(C)(C)CCC2(C)C [Bexarotene] (first compound 0.4 µM, partner dose 2 µM) | 98.6% | 85.3% | 87.2% | 94.3% | 89.3% | 93.2% | 83.8% | 97.3% |  |  |
| C[C@@H](Oc1cc(-c2cnn(C3CCNCC3)c2)cnc1N)c1c(Cl)ccc(F)c1Cl [Crizotinib] + COc1ccc(Cl)c(Nc2nc3ccccc3nc2NS(=O)(=O)c2cccc(NC(=O)C(C)(C)N)c2)c1 [XL147] (first compound 0.2 µM, partner dose 0.8 µM) | 98% | 89.1% | 92.5% | 75% | 88.1% | 99.9% | 93.8% | 106% |  |  |
| C[C@@H](Oc1cc(-c2cnn(C3CCNCC3)c2)cnc1N)c1c(Cl)ccc(F)c1Cl [Crizotinib] + O=C(CCCCCCC(=O)Nc1ccccc1)NO [vorinostat] (first compound 0.2 µM, partner dose 0.08 µM) | 104% | 104% | 109% | 97.9% | 92.4% | 112% | 103% | 89% | 97.1% | 87.4% |
| C[C@@H](Oc1cc(-c2cnn(C3CCNCC3)c2)cnc1N)c1c(Cl)ccc(F)c1Cl [Crizotinib] + Cn1nnc2c(C(N)=O)ncn2c1=O [temozolomide] (first compound 0.2 µM, partner dose 2 µM) | 99.5% | 95.5% | 89.4% | 101% | 83.9% | 84.7% | 87.7% | 91.8% |  |  |
| C[C@@H](Oc1cc(-c2cnn(C3CCNCC3)c2)cnc1N)c1c(Cl)ccc(F)c1Cl [Crizotinib] + Cc1nc(Nc2ncc(C(=O)Nc3c(C)cccc3Cl)s2)cc(N2CCN(CCO)CC2)n1 [dasatanib] (first compound 0.2 µM, partner dose 0.004 µM) | 76.7% | 97.1% | 78% | 77.7% | 58% | 86.1% | 84.5% | 74.6% |  |  |
